Measurements published in the supplement of paper PMC12632987.
The full ranking holds about 2,300 sequences; the median of “median log2 fold change of GCK-ALFA target abundance (FLAG IP / Myc IP barcode read proportion)” is about 0.095, and the lowest 2% start at about -0.47. The list shows a part of the results.

B1: LC3A_3_1491 (protein)
chain: MEELLERMREVLEARGASEEQIEEVLEAVEELLELGYEETVEELIELFEANPDLDPEQIVTAVLITLEVAEEEDLSEEELVERARRIFEDVAEIEALDEE
B2: LC3A_free_39_2209 (protein)
chain: SEEELEELIKEVAKEGGIDYEYVKEKIEEIQKVAELSIEQMKEIVKAILKAVKAGADAKEILEEILKIAKELKEKGKSPEEIKEAILKTVEDFENLVPLD
B3: LC3A_free_39_2191 (protein)
chain: SAAERKRLREEILALAAKYGEEARKLAEELIELIGDEVERLRRLLELLKEADEAGVDLKELLEEALALARELQAQGKSREEIAEEVFALIRDRINLIPID
B4: LC3A_28_688 (protein)
chain: MDPLEELLEQVEKATEQLLADPGATVTIEINRPLTEEETEKLVEALKEMAERVKDVDGGTIIISVSEKVSEETINKLAEAGEEIEEKYPNITVIIALEER
B5: LC3A_28_788 (protein)
chain: SKLKENADKALAEAKAAAAAGESTVITIEVSGEATEEDIEYVIEKLKEIAEVLKDVENQAIIIDVSKDVKEEHLNKLMDAADEVEEKYPNVTVIIALEER
B6: LC3A_3_1468 (protein)
chain: MDPAVAALAAALRARGVPEEQIARIVAAAERLAEHGVLDVIVETLEAALAHPSATPEQLVEIAEETLRLAVEEGLSREEVREEAKVLLLERVEIEEIDEE
B7: LC3A_3_1459 (protein)
chain: SPALIARARAILEANGFSPETIAAAVRLLEALAARGYEEAQKTLLAEIEKLKDVSSEIMLAMFEELLALVETEDLTEEEVVAAIKEEAAAARSEQEIIEL
B8: LC3A_free_46_2385 (protein)
chain: YKAIIDVDFGAMDRETAEEIAEKIKKAAEEISKKYGVKVEVEVEIIEDPDGEYYLRVRITIEGEDKEKVEAAVNELIDKIDEIAEEAGVSYIISVEFIDE
B9: LC3A_free_0_2109 (protein)
chain: MIVEGEVVAISKEPVSDEDAEKLLKAAKEKAKEIEKKYGAKTEVTAERIDGRLVLTIKITAEGLSIEEMDEILNEVADFIEKKAKELGKEVTIYLSIEEL
B10: LC3A_74_2076 (protein)
chain: KLTPEEVEEVDEAIAFAELLRILAKEHPEKKEELLKAAKEALEAAEEVIKKSGLDLDLLLEGGRIEAELLYLKKEYTVEEALKKLKEELKKVKEILKKLE
B11: LC3A_3_1531 (protein)
chain: LEERVEKRLEELKAAGASEETLEAFKETAELLKEKGYEEALETLIEEADELKDVPNELFLDFFKEVLELVKTSDLSEEELVEEIKEIARTVKNESEIIEL
B12: LC3A_3_1539 (protein)
chain: LEEEIEAALALLREAGASEETLAAFREAAEALLERGYEEALRELIRETRELIDAPSELLLAFFEEVLALVRTSDLSEEELIAEIRRIARTTRNEAEIEEL
B13: LC3A_28_811 (protein)
chain: SHVDEVIAAVKEEGEKLKNSKEDVLLEVRVSGDITVEEAERLMDAIEEIARELAKNRKVYIVITAEEPISQEVLDTILDRAEEIEEKYPNVSVIVALPEE
B14: LC3A_3_1663 (protein)
chain: MDALIAATLAWLAAQGRSAETLAAVRAALTALAARGYEETLRTFAALLRELAGLSDELLLELAREVLELVETSDLDEEAMTERVREIARTIRSEAEIEEL
B15: LC3A_free_46_2409 (protein)
chain: YKAEIDIYALAETKEKAEKFAEEVKKAAEEIAKKYGIKVEIKVEISKLPDGTYFVEIRITLEAETKETLEKAVNELIDKIEEIAEKLGVSIMISYEIEEK
B16: LC3A_102_155 (protein)
chain: RIEELLERTEEEIRRLAEELARTLSPEEAEELRRLVAEALELLRRYAEELKIGAQHDFETVEGVRAELELEELIERLEEMGAEEIARALREGLERLKELA
B17: LC3A_3_1661 (protein)
chain: MEELIKKTLEYLKEKGKSEEVLEAVKEALEALIEKGYEEAAKVFAELMKELEDLSDELLLDLAEEVKELVETSNISEEEMTKKIKEIARVTRLEAEIEEL
B18: LC3A_102_130 (protein)
chain: TKEEKIKEAIEKELKEIEKILEKDKSLTEEEKKELLEAARTALEAEAESATAEAQHGFVDIEAEDKMLEALEYLKEKSEEVYEATKKAIERIRKLVEELA
B19: LC3A_free_39_2278 (protein)
chain: SPERAAAIDARLDAIAASMSPEAAANLARLREIFADDPEARARLAEALERAREEGADMEEVTARALEIALEGQAEGLSREEIAERVLEEIEDMINLIPLD

The binders below were run against MAP1LC3A, Q9H492 (assay: median log2 fold change of GCK-ALFA target abundance (FLAG IP / Myc IP barcode read proportion) (log2 ratio); each designed protein is fused to an ALFA-tag nanobody in HEK293 cells to bring the named protein to FLAG-tagged glucokinase (GCK); Myc marks an untargeted standard; higher = target protein stabilised (more abundant)). Details: target protein: 3xFLAG-MCP-GCK-ALFA reporter; HEK293 landing pad (RPLP).
Method in brief: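 Binders fused to an ALFA nanobody were recombined as a library into HEK293 landing-pad cells, which were induced with 2 μg mL^−1 doxycycline and then transfected to express a FLAG-tagged target and a Myc-tagged standard. After 48 h, circular RNA barcodes recovered by anti-FLAG and anti-Myc immunoprecipitation of lysates were reverse transcribed, amplified and sequenced. Each binder's target abundance is the median log2 ratio of FLAG to Myc barcode read proportions, from barcodes present at ≥10^−7 in both replicates, binders carrying ≥3 barcodes per replicate, a 10^−6 pseudocount and pooled replicates.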
For B1, the “median log2 fold change” value was -0.577. In the case of B2, the “median log2 fold change” value is reported as 0.0555. With B3 the “median log2 fold change” value was 0.0381. B4 was tested, and the “median log2 fold change” value was 0.248. In the case of B5, the “median log2 fold change” value is reported as -0.0358. For B6, the “median log2 fold change” value was 0.182. In the case of B7, the “median log2 fold change” value is reported as 0.111. In the case of B8, the “median log2 fold change” value is reported as 0.0817. With B9 the “median log2 fold change” value was -0.0406. In the case of B10, the “median log2 fold change” value is reported as 0.186. In the case of B11, the “median log2 fold change” value is reported as 0.197. In the case of B12, the “median log2 fold change” value is reported as 0.318. For B13, the “median log2 fold change” value was -0.124. For B14, the “median log2 fold change” value was 0.262. B15 was tested, and the “median log2 fold change” value was 1.12. B16 was tested, and the “median log2 fold change” value was 0.0763. With B17 the “median log2 fold change” value was 0.286. B18 was tested, and the “median log2 fold change” value was -0.155. In the case of B19, the “median log2 fold change” value is reported as 0.221.
